Experimental findings from PubChem BioAssay AID1963576 (National Center for Advancing Translational Sciences (NCATS), 2024) are described below.

About 60 (0.1%) of roughly 46,000 compounds were called active. About 3% were inconclusive and are not listed. Calls come from the whole dose curve; as a rule, active = well fitted inhibition curve with a large enough effect; inconclusive = small, poorly fitted or top-dose-only effect; inactive = no such curve, though single readings can be large or run the other way. This is one part of the list.
Potency is the fitted concentration of half-maximal effect.

The nature of this assay: Primary qHTS assay for Inhibitors of ovarian cancer metastasis using an organotypic tumor microenvironment (TME) model.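 For Potency: count of GFP cancer cells still attached after washing and fixation.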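 For activity change, negative = inhibition: plate controls were DMSO wells for no effect and tomatine positive control wells for full effect.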 Note: nearly all actives have a fitted effect of over 65% in size. As to conditions: SKOV3ip1-GFP adhesion/invasion on 3D omental model, fluorescence; series mostly up to 45.8 µM; activity change, negative = inhibition: at the top concentration. The method in brief:
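qHTS, 4-pt dose (0.36-46 umol/L); SKOV3ip1-GFP, 1,200 cells/well, no FBS; primary omental fibroblast/mesothelial co-culture 48 h pre-grown; 2 h RT + 16 h 37 C; PBS wash, 4% PFA; GFP count 488/509 nm.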
Take `Cc1noc(NS(=O)(=O)c2ccc(NC(=O)COc3ccccc3Br)cc2)c1C`: the “activity change, negative = inhibition” value is inactive: 2.19%.
Still for that read-out and setting: next, `COc1cc(Cl)c(C)cc1NC(=O)Cn1cnc2sc(C)c(S(=O)(=O)N3CCCCC3)c2c1=O`: inactive: -3.25%; `Cc1cc2c(cc1C)NC(CC(=O)Nc1cccc(C)c1C)C(=O)N2` (stereo not given): inactive: 6.9%; `CCS(=O)(=O)c1c(S(=O)(=O)CC)c2cc(C(C)(C)C)ccn2c1C(=O)c1ccc(F)cc1`: inactive: -8.96%.
For the compound `O=C(NCc1ccc(Cl)cc1)C(=O)NCC(c1cccnc1)N1CCN(c2ccccc2)CC1` (stereo not given), the “activity change, negative = inhibition” value was inactive: -4.79%.
The same measure, in the same setting: next, `COc1cccc(-c2nnc(SCC(=O)N3CCc4ccccc43)o2)c1`: inactive: 11.2%.
With `CC(Nc1ncnc2c1cnn2-c1cccc(Cl)c1)c1ccccc1` (stereo not given), the compound was called inactive.
For `CCOc1ccccc1NC(=O)Cn1c(=O)n(-c2ccc(C)c(C)c2)c(=O)c2c(C)c(C(=O)N(C)C)sc21`, the “activity change, negative = inhibition” value is inactive: -3.24%.
Take `COc1cccc(-c2cc(C(=O)Nc3ccc(OC)cc3OC)no2)c1`: the result was inactive.
Consider `Cc1ccc2oc(=O)c(-c3nc(-c4cccs4)no3)cc2c1`, for which the “activity change, negative = inhibition” value is inactive: -15.1%.
The same measure, in the same setting: next, `CC(C)CNc1ccnc(NCc2csc(-c3ccccc3)n2)n1`: inactive: 5.63%.
Still for that read-out and setting: next, `CCN(c1ccc(C)cc1C)S(=O)(=O)c1nnc(NC(=O)c2ccc(F)cc2)s1`: inactive: -9.71%.
The same measure, in the same setting: next, `Cc1nc2nc(SCC(=O)NCCc3ccc(Cl)cc3)nn2c(C)c1Cc1c(F)cccc1Cl`: inactive: 1.13%.
With `CCOCCCNC(=O)CCC(=O)NNc1nc2ccccc2c2nc(C)nn12`, the “activity change, negative = inhibition” value was inactive: 7.69%.
On the same count and under the same terms, next, `Cc1ccc(NC(=O)C2CCCN2S(=O)(=O)c2ccc3c(c2)n(C)c(=O)c(=O)n3C)cc1` (stereo not given): inactive: -3.67%; `Cc1csc2nc(COC(=O)c3ccc(NC(=O)c4ccccc4Br)cc3)cc(=O)n12`: inactive: 3.34%; `COc1ccc(OC)c(NC(=O)CN(c2ccccc2OC)S(=O)(=O)c2ccc(C)cc2)c1`: inactive: 27.2%.
Same read-out and setting: next, `O=C(Nc1cccc(C(=O)OCc2cc(=O)n3ccsc3n2)c1)c1ccc(F)cc1`: inactive: -7.78%; `COc1ccc(-n2cnc3cc(C(=O)NCCC4=CCCCC4)ccc32)cc1`: inactive: -10.3%.
On the same count and under the same terms, next, `COC(=O)c1ccccc1NC(=O)Cc1nc(-c2ccc(OC)cc2)no1`: inactive: -9.13%.
Regarding `COc1cc2c(Nc3ccc(NC(=O)c4ccccc4)cc3)ncnc2cc1OCCCN1CCOCC1`, the “activity change, negative = inhibition” value was inactive: -5.43%.
As to `Cc1nn(CCC(=O)Nc2cccc(C#N)c2)c(C)c1S(=O)(=O)N1CCC(C)CC1`, the compound was classed as inactive.
The same measure, in the same setting: next, `O=C(O)c1ccc(CSc2nc3cccnc3n2Cc2cccc(F)c2)cc1`: “inactive”; `CC(=O)Nc1ccc(NC(=O)c2c(-c3ccccc3)noc2C)cc1`: “inactive”.
In the case of `CCOc1cccc(C2Oc3nc(SC)nnc3-c3ccccc3N2C(C)=O)c1OC` (stereo not given), the “activity change, negative = inhibition” value was inactive: -17.9%.
The same measure, in the same setting: next, `O=C(CSc1nc2ccccc2n1Cc1cccc(C(F)(F)F)c1)NCc1ccccc1`: inactive: 1.59%.
On the same count and under the same terms, next, `Cc1cc(C)cc(NC(=O)Cn2c(C)cc(C)c(C#N)c2=O)c1`: inactive: 29.6%.
As to `CC(=O)N1CCc2cc(CNS(=O)(=O)c3ccccc3C(F)(F)F)ccc21`, the result was inactive.
With `Cc1nn(CC(=O)NCc2ccco2)c(=O)c2nn(-c3ccccc3)c(C)c12`, the “activity change, negative = inhibition” value is inactive: -9.11%.
On the same count and under the same terms, next, `COc1ccc(N2CCN(C(=O)c3ccc(CS(=O)c4cccc(C)c4)o3)CC2)cc1` (stereo not given): inactive: 17.3%; `COc1ccc(Cl)cc1NC(=O)c1oc2ccc(S(=O)(=O)N3CCCCC3)cc2c1C`: inactive: 3.01%; `O=C(CSc1nc2c([nH]c3ccccc32)c(=O)n1-c1ccc(F)cc1)Nc1ccc2c(c1)OCO2`: inactive: -18%.
Take `Cc1ccc(S(=O)(=O)C(CNC(=O)C(=O)NCCc2ccc(F)cc2)c2cccs2)cc1` (stereo not given): the “activity change, negative = inhibition” value is inactive: -1.78%.
The same measure, in the same setting: next, `COc1cc(NC(=O)CSc2ccc(-c3sc(C)nc3C)nn2)cc(OC)c1`: inactive: -8.03%.
With `COC(=O)CC1Oc2ccc(Cl)cc2-n2cc(-c3ccc(C)cc3)nc21` (stereo not given), the outcome was inactive.
On to `Nc1ncc(S(=O)(=O)N2CCN(c3ccccc3)CC2)cn1`, for which the “activity change, negative = inhibition” value is inactive: -5.77%.
With `O=C(Nc1ccc(F)c(Cl)c1)C1CCN(c2ncccn2)CC1`, the outcome was inactive.
On the same count and under the same terms, next, `O=C(COc1ccc(F)cc1)NCc1ccc2c(c1)CCN2C(=O)c1ccc(F)cc1`: “inactive”.
For the compound `Cc1ccc(C)c(N2CCN(c3nc4ccccc4n4nnnc34)CC2)c1`, the “activity change, negative = inhibition” value was inactive: -7.66%.
On the same count and under the same terms, next, `COc1ccc(CCNC(=O)c2c3c(nc4ccccc24)C(=O)N(C2CCCCC2)C3)cc1OC`: inactive: 0.754%; `CCN1c2ccccc2-c2nc(SCC(=O)Nc3cc(C)c(Cl)cc3OC)ncc2S1(=O)=O`: inactive: 1.32%.
With `Oc1c(C(c2cccc(Cl)c2)N2CCOCC2)sc2nc(-c3ccco3)nn12` (stereo not given), the “activity change, negative = inhibition” value was inactive: -8.66%.
As to `COCCn1c(=O)[nH]c2cc(C(=O)N3CCN(c4ccc(F)cc4)CC3)ccc2c1=O`, the outcome was inactive.
As to `Cc1cc(Br)cc(C)c1OCC(=O)Nc1ccc(S(=O)(=O)Nc2ncccn2)cc1`, the “activity change, negative = inhibition” value was inactive: -8.03%.
Take `COC(=O)c1ccccc1NC(=O)C1CCCN(C(=O)c2cnn(-c3ccc(F)cc3)c2-n2cccc2)C1` (stereo not given): the call was inactive.
As to `CCc1nn(CC(=O)NCC(C)c2ccccc2)c(=O)c2cc3c(OC)cccc3n12` (stereo not given), the “activity change, negative = inhibition” value is inactive: 9.86%.
Same read-out and setting: next, `Cc1cc(-n2c(C)nc3ccccc3c2=O)ccc1NC(=O)c1cccc([N+](=O)[O-])c1C`: inactive: 1.57%.
In the case of `Cc1cccc(OCC(=O)Nc2ccc(S(=O)(=O)N(Cc3ccccc3)c3ccccc3)cc2)c1`, the result was inactive.
For the compound `O=C(NCCc1csc(-c2ccc(C(F)(F)F)cc2)n1)c1ccccc1Cl`, the “activity change, negative = inhibition” value is inactive: -8%.
For the compound `CCOCCc1nn2c(=O)cc(COC(=O)c3ccccc3Br)nc2s1`, the “activity change, negative = inhibition” value was inactive: 12.2%.
Consider `COc1cc2c(NC3CCN(C(C)C)CC3)nc(C3CCCCC3)nc2cc1OCCCN1CCCC1`, for which the Potency was active: 11.8 µM.
In the case of `Cc1oc(-c2ccccc2F)nc1Cn1c(SCc2cccc(Cl)c2)nc2ccncc21`, the “activity change, negative = inhibition” value is inactive: -6.65%.
On the same count and under the same terms, next, `N#C/C(=C\c1ccc(-c2ccc(Br)cc2)o1)C(=O)Nc1ccccc1O`: inactive: -0.955%.
As for `Cc1ccc(-n2ncc3c(N4CCN(Cc5ccccc5)CC4)ncnc32)cc1C`, the compound was classed as inactive.
On the same count and under the same terms, next, `CCCn1c(=N)c(C(=O)NCc2ccccc2)cc2c(=O)n3cccc(C)c3nc21`: “inactive”.
Same read-out and setting: next, `Cc1ccc(CNC(=O)C(=O)NCC(c2cccs2)S(=O)(=O)c2ccccc2)cc1` (stereo not given): “inactive”.
Consider `COc1ccc(-c2noc(CNC(=O)c3ccc(OC)cc3OC)n2)cc1`, for which the result was inactive.
Consider `Cc1ccc(C)c(NC(=O)C2CCCN2S(=O)(=O)c2ccc3c(c2)CCCC(=O)N3)c1` (stereo not given), for which the “activity change, negative = inhibition” value is inactive: -7.38%.
The same measure, in the same setting: next, `CCC1=Nc2cc(C(=O)N3CCC(C)CC3)ccc2Sc2ccc(C)cc21`: inactive: -29.3%.
The same measure, in the same setting: next, `Cc1cccc(CNC(=O)C2CCN(S(=O)(=O)c3cccc4nonc34)CC2)c1`: inactive: -7.64%.
Same read-out and setting: next, `CCCC(=O)OCc1cnc(C)c2oc(=O)c(C(=O)Nc3ccc(F)cc3C)cc12`: inactive: -1.88%.
`N#C/C(=C\c1ccccc1)c1nc(-c2cc3c(ccc4ccccc43)oc2=O)cs1`: the compound was classed as inactive.
Consider `CCCCN(CC)CCNC(=O)c1nn(-c2ccc(OC)cc2)c(=O)c2c1c1ccccc1n2C`, for which the “activity change, negative = inhibition” value was inactive: 3.13%.
Regarding `CCOC(=O)c1c(NC(=O)COc2ccc(OC)cc2)sc(C(=O)N(CC)CC)c1C`, the compound was called inactive.
Regarding `Cc1ccc2nc(N3CCN(c4ccc(F)cc4)CC3)c3nnnn3c2c1`, the “activity change, negative = inhibition” value is inactive: -3.73%.
The same measure, in the same setting: next, `CCOc1ccc(CCNC(=O)C2CC(=O)N(CCc3ccc(OC)c(OC)c3)C2)cc1OCC` (stereo not given): inactive: -3.27%; `COc1cccc(-c2noc(COc3cccc(C)c3C)n2)c1`: inactive: 6.66%; `CCN(CC)CCCNC(=O)c1ccc2c(c1)NC(=O)C(CS(=O)(=O)Cc1ccc(F)cc1Cl)N2` (stereo not given): inactive: -8.49%.
As for `CCOC(=O)c1cccc(NC(=O)Cn2cnc3nc4c(cc3c2=O)CCCC4)c1`, the compound was called inactive.
Take `CCc1ccc(NS(=O)(=O)c2ccc3[nH]cc(C(=O)NCCc4ccccc4)c(=O)c3c2)cc1`: the “activity change, negative = inhibition” value was inactive: 0.646%.
The same measure, in the same setting: next, `COc1ccc(N2CC(c3nc(-c4ccccc4C)no3)CC2=O)cc1Cl` (stereo not given): inactive: -4.61%.
Still for that read-out and setting: next, `COCCNC(=O)c1sc2nc3n(c(=O)c2c1C)CCC3`: inactive: 6.15%; `Cc1nc(-c2ccc(Cl)cc2)sc1CCNC(=O)C(=O)Nc1ccccc1C#N`: inactive: 0.987%.
With `COC(=O)c1ccc(NC(=O)C(c2ccccc2)N2Cc3ccccc3C2=O)cc1` (stereo not given), the “activity change, negative = inhibition” value is inactive: 16.2%.
`Cc1cccc(CCNC(=O)CCc2c(C)nc3c(-c4ccc(F)cc4)c(C)nn3c2C)c1`: the outcome was inactive.
The same measure, in the same setting: next, `Cc1ccc(-c2onc(C)c2C)cc1S(=O)(=O)N1CCc2ccccc21`: “inactive”.
On to `CCCCN(C(=O)Nc1ccc(OCC)cc1)C1CCN(C(C)=O)CC1`, for which the “activity change, negative = inhibition” value is inactive: 9.47%.
For the compound `COCCn1c(SCC(=O)Nc2ccc(Br)cc2)nc2c([nH]c3ccccc32)c1=O`, the “activity change, negative = inhibition” value is inactive: -11.7%.
As to `COc1ccc(NC(=O)Cn2c(SCc3c(F)cccc3Cl)nc3ccncc32)cc1OC`, the outcome was inactive.
For `CCCc1ccc(OC(=O)c2sc3ncn(Cc4cccc(F)c4)c(=O)c3c2C)cc1`, the “activity change, negative = inhibition” value is inactive: 11.2%.
Turning to `Cc1cc(C)cc(NC(=O)C2CCCN(c3nnc(-n4c(C)ccc4C)s3)C2)c1` (stereo not given), the result was inactive.
As to `COc1ccc(N2CCN(C(=O)c3cc4c(s3)-c3c(C)cccc3OC4)CC2)cc1`, the “activity change, negative = inhibition” value is inactive: -1.91%.
Same read-out and setting: next, `Cc1ccc(NC(=O)C2CCCN(S(=O)(=O)c3ccc(C)cc3)C2)cc1` (stereo not given): inactive: 1.17%; `CCOC(=O)c1c(S(=O)(=O)N2CCN(c3cc(Cl)ccc3C)CC2)c(C)n(C)c1C`: inactive: 0.273%; `CCC(Sc1nc2n[nH]c(C)c2c(=N)n1-c1ccc(Br)cc1)C(=O)N(CC)CC` (stereo not given): inactive: -1.23%.
For `CCN(CC)c1ccc(NC(=O)C2CCCN(S(=O)(=O)c3ccc4c(c3)oc(=O)n4C)C2)c(C)c1` (stereo not given), the result was inactive.
Take `Cc1ccc(NC(=O)Cn2nc(-c3ccc(Cl)cc3)c3ccccc3c2=O)cc1`: the “activity change, negative = inhibition” value was inactive: 1.27%.
The same measure, in the same setting: next, `COc1ccccc1-c1ncnn1-c1sc2c(c1C#N)CCCCC2`: inactive: 6.76%; `COc1cc(NS(=O)(=O)c2ccc3c(c2)OCC(C(=O)N2CCCC2)O3)cc(OC)c1` (stereo not given): inactive: 1.69%; `COc1ccc(NC(=O)Cn2ncc3c4ccccc4n(Cc4ccccc4)c3c2=O)cc1OC`: inactive: 0.646%.
Turning to `Cc1ccc(Nc2c3c(nc4ccccc24)CCC3)cc1F`, the “activity change, negative = inhibition” value was inactive: -21.7%.
Still for that read-out and setting: next, `CCc1ccc(-c2nc3cc(NC(=O)c4ccc(F)cc4)ccc3o2)cc1`: inactive: 1.85%; `Cc1ccc(CNC(=O)CCN2C(=O)C(C)Oc3ccc(C)cc32)cc1` (stereo not given): inactive: -11.3%.
Turning to `Cc1cccc(COc2ccc(-c3cc(C(F)(F)F)n4nc(C)cc4n3)cc2)c1`, the “activity change, negative = inhibition” value is inactive: -7.77%.
In the case of `CCCCNC(=O)c1ccc(-c2nc(CN3CCc4ccccc43)c(C)o2)cc1`, the call was inactive.
